Results: the supplement of paper PMC11417369
± gives the standard deviation of the averaged measurements. The list shows a part of the results.

Test system: PfAP2-I AP2 domain 3 (GST-tagged)
Test: gcPBM binding intensity (ln(normalized median fluorescence intensity)); higher = stronger DNA binding
Outline: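 An Agilent 4 × 180k array of primer-extended double-stranded 36-bp intergenic genomic probes, with negative controls, was incubated for 1 h with GST-tagged P. falciparum DNA-binding domains expressed in E. coli. Alexa488 anti-GST antibody detected bound protein, scanned at 488 nm. Binding intensity is the highest Masliner-normalised natural-log median intensity across replicate spots of either probe orientation.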

Row | Sequence | gcPBM binding intensity (ln)
1 | TATTGTTTTAAAGAGACATGCAATATATATTATTCC [TGCATGCA_site752] | 7.77 ± 0.75
2 | AAAATATAAATCTAAGCATGCAAAAAAAATTTATAA [TGCATGCA_site1008] | 7.58 ± 0.88
3 | AAAGACGCAAAATTGGTGCGCTGCTTTTAGCATTTT | 9.03 ± 0.18
4 | AAAAAAAAAAAGTACACACATACATATAAATATATA [CACACA_site1809] | 8.05 ± 0.2
5 | ATTTATATCCTTAAACGTACATTGTATTGTATTTTA [XGTACX_site6080] | 7.86 ± 0.52
6 | ACAGAATATTTAATTCAACACACATACATATTTATT [CACACA_site8734] | 7.61 ± 0.52
7 | AATAATCATGATCAAAGTACTTATGAATACCAAAAA [XGTACX_site2572] | 7.87 ± 0.78
8 | TGCATGCATTATCATAGTACATATAATGTTGTATAA [XGTACX_site2775] | 8 ± 0.58
9 | TAATCTTTCGTACATGTACACACAGAAAAAAAAAAA [CACACA_site8798] | 8.09 ± 0.71
10 | TATTAAGTATTTTACGTACACACTTATAAATGTACA [CACACA_site3885] | 7.96 ± 0.29
11 | ATTATTAAGTTTCACAAGAACATTGTTAACAATTTT [CACACA_negctrl_site1128] | 7.5 ± 0.64
12 | TATAAGGTGTCCTATACACACTCCAATAGATATATA [CACACA_site7066] | 7.87 ± 0.39
13 | AATTTATATTTTCGTAGTACGTATTTTATTCTTTTG [XGTACX_site4162] | 7.83 ± 0.47
14 | ATTACATGCAATATATGTACGTAATATATATATATA [XGTACX_site2300] | 9.075 ± 0.035
15 | CTGAACCCGTTATGGTGTACATAAAATAAGACACAG [XGTACX_site3484] | 8.46 ± 0.38
16 | TTATTACATGTTACTTAACACACATCTGGTGAAATA [CACACA_site7939] | 7.99 ± 0.48
17 | AAAATATAGTAATATATATATGTATATTATTTGTGG [CACACA_negctrl_site1590] | 7.47 ± 0.39
18 | GGAAAGACAGTTCACAGTACCCAGTAAACTCTACGG [XGTACX_site2557] | 7.29 ± 0.75
19 | TTTATATATGTAAATGCACACATATGTGTATATACT [CACACA_site8493] | 9.72 ± 0.35
20 | ATATATAATATTTTTATTTTTATTTTTTTTTTATGA [TGCATGCA_negctrl_site577] | 7.37 ± 0.49
21 | ATTAAGTTCAAATGTAGTACGTGTAAAAAAAAAAAA [XGTACX_site1578] | 8.28 ± 0.66
22 | TACCATGTTCAAATTACACACATATAATGTAATATA [CACACA_site5150] | 7.66 ± 0.35

Row | Sequence | gcPBM binding intensity (ln)
23 | TATAGGTATATATTATGTACTTATAATTATATAGAT [XGTACX_site1912] | 7.82 ± 0.34
24 | AAAATAAATAAATAAATAAATATATATATATATATA [XGTACX_negctrl_site345] | 9.32 ± 0.31
25 | GATTATATTATATATTAAATATAAATATGTATTATA [TGCATGCA_negctrl_site66] | 7.42 ± 0.23
26 | ATGTTGTGTATATATACACACATACATATATATATA [CACACA_site8461] | 9.3 ± 0.46
27 | GAAATATTTAGACACACACACAAACATATAAATATA [CACACA_site6980] | 7.92 ± 0.3
28 | AAAAAAAATTAAAATAAATTAAAAAGTAATTATATA [GTGCAC_negctrl_site615] | 7.14 ± 0.38
29 | AATGAGAAGGACTGCACACTAAAATGGAAGGAGAAA [CACACA_site1575] | 8.28 ± 0.79
30 | AATGGAAATGTAAAATGTACAGGACGCACACACATA [XGTACX_site7788] | 8 ± 0.35
31 | GAAAAAATTTTATGGTGTACTTTATTTATTTATATA [XGTACX_site6323] | 8.06 ± 0.28
32 | TTTTTATTATTCTTAAGGATATAACAAAAAAGAAAA [XGTACX_negctrl_site584] | 7.52 ± 0.37
33 | ATTAATATTATTAGAAGTACTAATAGTAGTATAACT [XGTACX_site1325] | 7.72 ± 0.59
34 | TAAACGTTAGTATGTGTGCACATTAGTAATTTAAAA | 9.65 ± 0.3
35 | TTCTAAAAAAATAAAATTATCAAGGTTTTTAAACGT [CACACA_negctrl_site308] | 7.55 ± 0.6
36 | TCAAAGCACACATACACACACATATAGATTTATATA [CACACA_site6272] | 8.41 ± 0.18
37 | TAAATAAATATATATTCACACACAAACATATATATA [CACACA_site9332] | 7.78 ± 0.68
38 | TCTTCATAAAAATAAAGTACATTATATATATAAATA [XGTACX_site3775] | 7.51 ± 0.4
39 | TTGTATATATATGGAAAAATATATATATATATATAT [GTGCAC_negctrl_site591] | 9.47 ± 0.74
40 | TTTATTTATAGACACACACACAAAAAAAAAAAAAAA [CACACA_site7280] | 8.15 ± 0.7
41 | TTTTTTTTTTTTTTTATAAAAGATAATTTTTTTTTA [CACACA_negctrl_site133] | 8.08 ± 0.49
42 | CATTTATATTATAAATGTACAAAGTTCGTTTGTTCC [XGTACX_site1305] | 7.57 ± 0.61
43 | TATAAATTTAAAATGACACACACTAATATTATTTAA [CACACA_site8334] | 7.62 ± 0.6
44 | TGTCTTTAAATTTCTCAACACACAGTTATAAAAAAT [CACACA_site8930] | 7.81 ± 0.44

Row | Sequence | gcPBM binding intensity (ln)
45 | ATACGATTGAAACATTGTACATGAATATAAAAAAAT [XGTACX_site5704] | 7.92 ± 0.57
46 | AGTATAATAATATTTACACACGCATATGTTATATAT [CACACA_site1476] | 8.15 ± 0.83
47 | AAAACGCTACATAATTGTACATGTAGAAATAAAAGC [XGTACX_site2895] | 8.24 ± 0.47
48 | TCTAAAAATAAGAACACACACATATAAGCATATAAA [CACACA_site2274] | 7.72 ± 0.61
49 | TACTGCCTTCCATACCCACACACTTCCCATATATTT [CACACA_site2705] | 8.44 ± 0.69
50 | ATTTAAAAAAAAAAAACACACATGTGAATAGAAAAG [CACACA_site3323] | 7.84 ± 0.69
51 | AAAAATTTGGCATACACACACACACCCACACCCACA [CACACA_site587] | 8.27 ± 0.085
52 | TATGTATTTAAATTAACACACATATGTGGTTAATAG [CACACA_site5697] | 7.76 ± 0.43
53 | ATATATTATATATATTGTACATGTAAAATTTTAAAA [XGTACX_site7197] | 7.92 ± 0.2
54 | ACATATATATATATATATATATATATATCATTATGT [CACACA_negctrl_site724] | 8.5 ± 0.23
55 | ACTCTTGATCTGAATGCACACAATAAATTATATAAA [CACACA_site1438] | 9.56 ± 0.22
56 | GATATTCATAGAAACACACATACAAATTATGTATAT [CACACA_site144] | 7.49 ± 0.54
57 | TTGCCCATTTAATTAACACACAAATATTTATATTCT [CACACA_site738] | 8.21 ± 0.51
58 | GTTAAATAATATATATGTACATACATAAGTGTTACT [XGTACX_site4778] | 7.85 ± 0.44
59 | ATTTCCTTTTGTTTCAGTACATAATTTTTTTTTTTT [XGTACX_site4842] | 7.88 ± 0.62
60 | TTTTTAAAGTTTTATACACACACCAAAATTATTCTA [CACACA_site600] | 7.79 ± 0.42
61 | TAATTGTACGCCAATACACACAGAATTAAAATGTAG [CACACA_site4234] | 8.15 ± 0.24
62 | TATGTGCACCCATGTACATGCGGACATATGTTATAT [TGCATGCA_site383] | 11 ± 0.9
63 | ATGGCCACTGTGAAATGTACAAAAAAAAAATACAAT [XGTACX_site2874] | 7.87 ± 0.63
64 | TATGTATATATATATATATATATATATATATATATA [TGCATGCA_negctrl_site491] | 9.12 ± 0.52
65 | AGTAGTCTGGAGAAAAGTACATAGTATCTGGTAACC [XGTACX_site2024] | 7.8 ± 0.63
66 | TTTTACAATAATAAGTAGATCTAAATAAAGATTTAA [GTGCAC_negctrl_site547] | 7.34 ± 0.51

Row | Sequence | gcPBM binding intensity (ln)
67 | CATACAAATTAATATGTACACACAAATATATATATA [CACACA_site8605] | 9.15 ± 0.38
68 | AAAAAAAAAAAATAATGTACATATGTATTTGAGAAA [XGTACX_site3572] | 7.66 ± 0.4
69 | TTCCAAAATTGCACATGTACAAAATTCTCCAATATG [XGTACX_site3419] | 8.54 ± 0.33
70 | TTTATATTATTTAATGAGAAATAATTATAAACAATT [TGCATGCA_negctrl_site65] | 7.57 ± 0.69
71 | TTTTTTTTTTTTTTTTGTACATATTTTAATTTGTTT [XGTACX_site6297] | 7.75 ± 0.26
72 | AAATCAACGATCTATACATGCATATAATATATACAT [TGCATGCA_site25] | 7.42 ± 0.6
73 | TAATAATACCCTTGCTGTACCAAATAAAGTTGAATA [XGTACX_site6922] | 7.83 ± 0.47
74 | GTAGCAATAAACATATGTACATATATATATTTTTTC [XGTACX_site5814] | 7.92 ± 0.45
75 | ATTAAAAAGACAAAAAAAAAATTTTTTTTTTTTTTT [CACACA_negctrl_site1027] | 8.21 ± 0.74
76 | TTTCATAACAAAAAAGTGCAAAATAGCACGAACATT [GTGCAC_site9703] | 10.66 ± 0.049
77 | AGAAAAAGGAGAAAAAGTACAAAACGGAGTAGTATT [XGTACX_site3858] | 7.98 ± 0.96
78 | AAAAATTATATACATCATAGAATTAACATTTTAAAT [GTGCAC_negctrl_site369] | 7.29 ± 0.53
79 | AAAAAAAAAAAGTTTACACACATTAATTTTACATAT [CACACA_site834] | 7.42 ± 0.54
80 | AAAAAAATACCATTCACACATATTCTTTTATTATTT [CACACA_site5113] | 7.68 ± 0.54
81 | ATAAATATAATAATCATACACACCAAAGAGAATATT [CACACA_site1888] | 7.82 ± 0.55
82 | AAAGTTATTATGCAATAATTATGATAATTAATATAT [TGCATGCA_negctrl_site316] | 7.99 ± 0.44
83 | ATGACTTACATATATAGTACTTTGTTTTGGAGTTGC [XGTACX_site94] | 7.58 ± 0.59
84 | TATGAGGAAACGTGGTGTACTTTTTTTTAATAAAAA [XGTACX_site1351] | 8.3 ± 0.092
85 | CATATAAAAATATATGCACACAAATAAAAAATTATA [CACACA_site9210] | 8.94 ± 0.39
86 | ATATTTAAATAATATTCACACACAAAATTATATTTT [CACACA_site7955] | 7.66 ± 0.57
87 | ATTTCTCAATCGTAATGTACAAAAAAAAGGGAAAAG [XGTACX_site2781] | 7.9 ± 0.58
88 | ACAAACAAAGAAAGAACACACATACACAATATACCT [CACACA_site5566] | 7.97 ± 0.59
